In PubChem BioAssay AID1768 (National Center for Advancing Translational Sciences (NCATS), 2009):
“And” between values parts separate entries of the source, which are not always exact repeats. Equal entries are not always repeated. The campaign covered roughly 270,000 compounds. About 620 (0.23%) were called active. The inconclusive results got no clear call from the source; some entries with a clear call stand among them for comparison. Calls come from the whole dose curve; as a rule, active = well fitted inhibition curve with a large enough effect in the polarisation, with a control signal flat (not every such curve was filed as active); inconclusive = small, poorly fitted or top-dose-only effect, or effect the other way, or a change in a side signal; inactive = no such curve, though single readings can be large or run the other way; the % refers to the polarisation. Where the call is inconclusive, the potency comes from a doubtful curve fit. “Side channel” marks fits to a control or component signal instead of the main read-out.

molecular target: Menin (Homo sapiens) (UniProt O00255); test: qHTS Assay for Inhibitors Targeting the Menin-MLL Interaction in MLL Related Leukemias: Competition With Texas Red Labeled MLL-derived Mutant Peptide; conditions: fluorescence polarization; series mostly up to 61.6 µM
Potency is the fitted concentration of half-maximal effect; tags give direction and shape of the fitted curve or compound fluorescence and quenching.

UniProt O00255, sequence (O00255 whole entry, looked up): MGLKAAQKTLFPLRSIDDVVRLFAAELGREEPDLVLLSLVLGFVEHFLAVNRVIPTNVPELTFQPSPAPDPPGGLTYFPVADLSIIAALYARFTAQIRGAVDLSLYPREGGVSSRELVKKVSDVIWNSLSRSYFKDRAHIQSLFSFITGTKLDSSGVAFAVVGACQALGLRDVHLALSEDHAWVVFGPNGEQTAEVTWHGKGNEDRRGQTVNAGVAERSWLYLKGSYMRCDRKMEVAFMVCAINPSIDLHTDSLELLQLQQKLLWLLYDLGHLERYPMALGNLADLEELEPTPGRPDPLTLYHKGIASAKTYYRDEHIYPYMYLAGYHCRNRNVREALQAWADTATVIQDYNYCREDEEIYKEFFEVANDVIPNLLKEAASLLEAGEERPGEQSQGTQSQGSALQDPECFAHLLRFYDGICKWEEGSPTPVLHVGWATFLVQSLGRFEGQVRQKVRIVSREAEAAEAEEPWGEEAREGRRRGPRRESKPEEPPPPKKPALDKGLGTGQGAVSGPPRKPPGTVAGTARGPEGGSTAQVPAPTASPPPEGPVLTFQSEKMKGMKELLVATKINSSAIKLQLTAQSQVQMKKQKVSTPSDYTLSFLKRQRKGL

SMILES	Potency
O=C(NCC1CC1)C1(C(F)(F)F)C/C(=C\CCO)CCCO1 (stereo not drawn)	inactive
CC(=O)OCC(=O)c1ccc2ccn(C(C)=O)c2c1	inactive
CC(C)(Cc1c[nH]c2ccccc12)NCC(O)COc1ccccc1C#N (stereo not drawn)	inconclusive: 0.355 µM [inhibitor, full curve, poor fit]
Cc1ccc(-c2cc(C(=O)Nc3ccccn3)c3ccccc3n2)o1	inconclusive: 22.4 µM [quencher, side channel, partial curve]
CCC1CN(C(=O)NCc2ccc(F)cc2)c2ccccc2O1 (stereo not drawn)	inconclusive: 28.2 µM [inhibitor, single point]
CCN1/C(=C/c2ccc3ccc(C)cc3[n+]2CC)Sc2ccccc21	inconclusive: 15.8 µM [fluorescent, side channel, single point]
CN(C)/C=C/c1onc(-c2c(Cl)cccc2Cl)c1C#N	inconclusive: 28.2 µM [quencher, side channel, single point]
CCOc1ccc(/C=C2\SC(N3CCCCC3)=NC2=O)cc1	inconclusive: 12.6 µM [inhibitor, partial curve]
COc1cc(Cl)cc(/C=C/c2ccc3cccc(O)c3n2)c1OC	inconclusive: 39.8 µM [fluorescent, side channel, single point]
O=C(c1ccncc1)N1N=C(c2ccc(Cl)cc2)CC1c1ccccc1O (stereo not drawn)	inactive
O=S(=O)(c1ccccc1F)N1CCN(C(=S)NCc2ccccc2)CC1	inconclusive: 22.4 µM [quencher, side channel, single point]
CCOC(=O)N1CCN(c2nnc(-c3ccccc3)c3ccccc23)CC1	inconclusive: 12.6 µM [fluorescent, side channel, partial curve]
O=C(C[n+]1cc(-c2ccccc2)n2c1CCCCC2)c1ccc(Br)cc1	inconclusive: 15.8 µM [inhibitor, partial curve]
COc1cc(CN(CCN(C)C)Cc2ccccc2)ccc1OCc1ccccc1	inconclusive: 11.2 µM [fluorescent, side channel, partial curve]
CC(C)C1C(=O)N(S(C)(=O)=O)[C@H]2CCN(C(=O)/C=C/CN3CCCCC3)[C@@H]12 (stereo partly drawn)	inactive
O=C(CCSc1ccccc1)Nc1ccc(S(=O)(=O)N2CCOCC2)cc1	inconclusive: 17.8 µM [quencher, side channel, partial curve]
CN1CCN(C(=S)NC(=O)c2ccc(Cl)cc2)CC1	inconclusive: 14.1 µM [quencher, side channel, partial curve]
O=Cc1cccc(Oc2ccc([N+](=O)[O-])cc2[N+](=O)[O-])c1	inconclusive: 22.4 µM [quencher, side channel, single point]
COc1ccc(-n2c(SCC(=O)Nc3ccc(C)cc3)nc(O)c(Cc3ccccc3)c2=O)cc1	inconclusive: 14.1 µM [quencher, side channel, partial curve]
CCc1cc(C(=O)Cc2cnn(-c3ccccc3)c2)c(O)cc1O	inconclusive: 25.1 µM [quencher, side channel, partial curve]

SMILES	Potency
Nc1cnccc1C(=O)O	inconclusive: 28.2 µM [fluorescent, single point]
OCC1(CCc2ccccc2)CCN(Cc2cc(F)ccc2-n2cccn2)CC1	inconclusive: 12.6 µM [fluorescent, side channel, partial curve]
Cc1cc(NC(c2cccnc2)c2ccc3cccnc3c2O)no1 (stereo not drawn)	inactive
CC(=Nc1ccccc1N)c1c(C)cc(=O)n(O)c1O	inconclusive: 0.708 µM [inhibitor, full curve]
O=C1CCN(CCc2ccccc2)CCN1[C@H](CSc1ccccc1)c1ccccc1	inactive
Oc1ccc(-c2[nH]ncc2-c2cnn(-c3ccccc3)c2)c(O)c1	inconclusive: 12.6 µM [quencher, side channel, partial curve]
Oc1ccc(Cl)cc1C=Nc1ccccc1Br	inactive
CC1CCCN(S(=O)(=O)c2ccc(C(=O)Nc3nnc(C4CC4)o3)cc2)C1 (stereo not drawn)	inconclusive: 11.2 µM [quencher, side channel, partial curve]
Cn1nc(C(F)(F)F)c2cc(C(=O)Nc3ccc(Cl)cc3)sc21	inconclusive: 39.8 µM [inhibitor, single point]
CC(CCc1ccccc1)NC(=O)COC(=O)c1cccc2ccccc12 (stereo not drawn)	inactive
CCC(=O)NC(=S)NNC(=O)c1ccc(NC(=O)c2ccccc2)cc1	inconclusive: 39.8 µM [quencher, side channel, single point]
Cc1c(C(=O)NC(=S)Nc2ccc(NC(=O)c3cccs3)cc2)oc2ccccc12	inconclusive: 11.2 µM [quencher, side channel, partial curve]
CC(=O)Nc1ccc(S(=O)(=O)N2CCC(C(=O)NCCc3ccc(Cl)cc3)CC2)cc1	inconclusive: 25.1 µM [quencher, side channel, single point]
COc1ccc(-c2nnc(SC(=O)N3c4ccccc4Sc4ccccc43)o2)cc1	inconclusive: 17.8 µM [quencher, side channel, partial curve]
c1ccc(NC2=Nc3ccccc3CS2)cc1	inconclusive: 3.98 µM [quencher, side channel, single point]
Cc1cc(N2CCOCC2)ccc1/C=C1\NC(=O)N(Cc2ccccc2F)C1=O	inconclusive: 39.8 µM [quencher, side channel, single point]
Cc1ccc(O)c(C(=O)CC(=O)c2ccccc2Cl)c1	inconclusive: 39.8 µM [quencher, side channel, single point]
CN=C1C=CC(=C(c2ccc(N(C)C)cc2)c2ccc(N(C)C)cc2)C=C1	inconclusive: 7.08 µM [fluorescent, side channel, full curve]
COCCN(C(=O)/C=C/c1ccccc1)c1c(N)n(Cc2ccccc2)c(=O)[nH]c1=O	inactive
CC(C)CN(CC(C)C)C(=O)Cc1coc2ccc3ccccc3c12	inconclusive: 10 µM [fluorescent, side channel, partial curve]

SMILES	Potency
O=C1c2c(O)ccc(O)c2C(=O)c2c(NCCNCCO)ccc(NCCNCCO)c21	inconclusive: 14.1 µM [quencher, partial curve] and inconclusive: 17.8 µM [quencher, side channel, partial curve] and inconclusive: 15.8 µM [quencher, side channel, partial curve]
c1ccc2nc3c(nc2c1)OCC1CCCCN31 (stereo not drawn)	inconclusive: 3.16 µM [inhibitor, partial curve]
Cc1cc2cc(CNC(=O)Nc3ccccc3)ccc2[nH]1	inconclusive: 25.1 µM [quencher, side channel, single point]
CCCCN(CC)CCNC(=O)c1cc2c(=O)[nH]c3ccc(C)cc3c2s1	inconclusive: 12.6 µM [fluorescent, side channel, partial curve]
CN(C)C1C(=O)C(C(N)=O)C(=O)C2(O)C(=O)C3C(=O)c4c(O)ccc(Cl)c4C(O)C3CC12 (stereo not drawn)	inconclusive: 39.8 µM [quencher, side channel, single point]
COc1ccc(NS(=O)(=O)c2cc(N)ccc2N2CCOCC2)cc1	inactive
CCOc1ccc(OCC(O)CN2CCc3ccccc3C2)cc1 (stereo not drawn)	inconclusive: 15.8 µM [fluorescent, side channel, partial curve]
CCOc1ccc(-n2c(=O)c3c4c(sc3n(CC(=O)NCC3CCCO3)c2=O)CCC4)cc1 (stereo not drawn)	inconclusive: 39.8 µM [fluorescent, side channel, single point]
COc1ccc(CCNCc2c(OC)ccc3ccccc23)cc1OC	inconclusive: 5.01 µM [inhibitor, full curve, poor fit]
COc1ccc(-c2csc(NC(=O)c3cc(C)oc3C)n2)cc1OC	inconclusive: 31.6 µM [quencher, side channel, single point]
NC(=O)c1c(NC(=O)c2ccccc2)sc2c1CCc1ccccc1-2	inconclusive: 11.2 µM [quencher, side channel, partial curve]
CCOC(=O)c1c(C)nc2c(c1-c1ccc(OC)cc1)C(=O)CC(C)(C)C2	inconclusive: 17.8 µM [inhibitor, partial curve]
Cc1ccc(O)c(N=CC2=C(O)c3ccccc3C2=O)c1	inconclusive: 28.2 µM [quencher, side channel, partial curve]
CCOc1ccc(OCC(=O)Nc2cc3c(cc2C(=O)O)OCCCO3)cc1	inconclusive: 20 µM [quencher, side channel, single point]
C=CC[n+]1c(/C=C2\C=Cc3cc(C)ccc3N2CC)ccc2ccccc21	inconclusive: 15.8 µM [fluorescent, side channel, partial curve]
COC(=O)C(C(=O)OC)[C@@H]1O[C@@]23COC=C[C@]2(C)[C@H]3c2ccccc21	inactive
c1coc(CNc2nc3nonc3nc2NCc2ccco2)c1	inconclusive: 28.2 µM [quencher, side channel, single point]
CS(=O)(=O)N1CCN(c2ccc(NC(=O)C(c3ccccc3)c3ccccc3)cc2)CC1	inconclusive: 12.6 µM [quencher, side channel, partial curve]
